Values marked as one replicate rest on one cluster of the flow cell; about a third of the high ones do not repeat.
Test system: ATP
Test: switch fluorescence ratio, 500 uM ATP over buffer (Cy3 cluster intensity, sum of 5 cycles each) (fold (ratio)); higher = stronger signal-on switching upon ATP binding; sequences stand for … in TCGTCGGCAGCGTCAGATGTGTATAAGAGACAGTTTTTTTTTTTTTTTTTTTTTTTTT…TC
Conditions: aptamer strand: ATP DNA aptamer (quencher-CACCTGGGGGAGTATTGCGGAGGAAGG + anchor), 100 nM annealed; ATP concentration: 500 uM; one replicate
How it was run: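 The fluorescence ratio divides summed target-cycle Cy3 intensity by summed buffer-cycle Cy3 intensity for each cluster and is averaged per switch-domain sequence. Cy3-labelled switching-strand clusters on a modified Illumina MiSeq flow-cell were annealed to 100 nM quencher-labelled ATP aptamer, then imaged in selection buffer and again after 15 min with 500 uM ATP at 22 °C. Five such cycles were run, with NaOH stripping and re-annealing between them, and clusters outside 100-1000 RFU were excluded.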
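Further: ATP exposure 15 min at 22 °C before imaging.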

CATTCGATTT
switch fluorescence ratio: 1.02

TAGCCTGGTA
switch fluorescence ratio: 1.02

CAAATGTTGA
switch fluorescence ratio: 1.02

CTAGCAGGGA
switch fluorescence ratio: 0.98

AGTGGCGCG
switch fluorescence ratio: 0.929

TTGATACACC
switch fluorescence ratio: 1.2

CATTATTGTA
switch fluorescence ratio: 0.943

AAGGTTGTTA
switch fluorescence ratio: 1

AGGGTTGTCT
switch fluorescence ratio: 1.06

CCTGTGTTGG
switch fluorescence ratio: 1.03

GCTGAAGTGA
switch fluorescence ratio: 1.04

GCTTTTGCGC
switch fluorescence ratio: 1.02

GCCAGGACAT
switch fluorescence ratio: 0.943

TTTGCTCTAT
switch fluorescence ratio: 1

CCCTGTGCTG
switch fluorescence ratio: 1.07

GGGATAATCA
switch fluorescence ratio: 0.975

GTTGTAATTT
switch fluorescence ratio: 1

ACAATATCCG
switch fluorescence ratio: 1.05

AGCTTTGTCA
switch fluorescence ratio: 1.03

TTGCCCCTAC
switch fluorescence ratio: 1.1

CGTGCGCGGG
switch fluorescence ratio: 1.06

GTATACGTGT
switch fluorescence ratio: 1

ACTCTTTGTA
switch fluorescence ratio: 0.989

TGATCCGGTA
switch fluorescence ratio: 1.09

GGCCTAGAAT
switch fluorescence ratio: 0.973

CCAGCAGATA
switch fluorescence ratio: 1.26

TCTAGGACCT
switch fluorescence ratio: 1.2

AGATTGAAGA
switch fluorescence ratio: 0.972

TTCGGCGGAT
switch fluorescence ratio: 1.01

TCGCTCGACT
switch fluorescence ratio: 1.12

CTCGCGCCCT
switch fluorescence ratio: 1.11

GCATAAGTCT
switch fluorescence ratio: 1.05

CGGCTCAGTC
switch fluorescence ratio: 1.03

CTAAACATGC
switch fluorescence ratio: 0.995

GCTTTTCCGA
switch fluorescence ratio: 1.03

GGGTCGGAAG
switch fluorescence ratio: 0.974

TATATATCGG
switch fluorescence ratio: 0.976

GCGCAATGCA
switch fluorescence ratio: 2.39

ACAGGGCAGC
switch fluorescence ratio: 1.02

TTCCACCCTT
switch fluorescence ratio: 1.02

TCCTGCATTT
switch fluorescence ratio: 1.09

TCGGTATCTC
switch fluorescence ratio: 1.02

TTTTTCCAGC
switch fluorescence ratio: 0.993

GTTGCACGGA
switch fluorescence ratio: 0.993

CTATTTGGGA
switch fluorescence ratio: 1.01

TGCCCCCCGG
switch fluorescence ratio: 0.999

CTTAGAAT
switch fluorescence ratio: 0.996

AGGTATAAAG
switch fluorescence ratio: 0.94

AGGCTATGGC
switch fluorescence ratio: 1.07

TAGCGAGCGG
switch fluorescence ratio: 1.03

GTGACTGGTG
switch fluorescence ratio: 1.01

CGGCAGTATT
switch fluorescence ratio: 1.05

GATTGACCGC
switch fluorescence ratio: 1.09

GCCGTGCTTT
switch fluorescence ratio: 1.01

GAATATACCC
switch fluorescence ratio: 1.05

AGGCCCTGGC
switch fluorescence ratio: 1.06

ATTTGTGTGC
switch fluorescence ratio: 1.01

ACAAGCTTCG
switch fluorescence ratio: 1.07

CGACGTTTCA
switch fluorescence ratio: 1.01

TATGTGGGAC
switch fluorescence ratio: 0.984

CCTTTTTTTC
switch fluorescence ratio: 0.978

CCATTTATGG
switch fluorescence ratio: 1.02

CCGTACTGAT
switch fluorescence ratio: 1.02

GTGGCTCCAC
switch fluorescence ratio: 1.01

ACCGAAAAGA
switch fluorescence ratio: 0.99

CAAATTGTTC
switch fluorescence ratio: 1.03

CGCGCTTGCG
switch fluorescence ratio: 0.983

GGACACAGGG
switch fluorescence ratio: 1.16

GCCACAGCGA
switch fluorescence ratio: 1.27

AAGCTGGGCG
switch fluorescence ratio: 1.05

TATGCTGGCA
switch fluorescence ratio: 1.04

ATTCCAACCC
switch fluorescence ratio: 1.02

GCTATCCTTG
switch fluorescence ratio: 0.99

TCTCTATATC
switch fluorescence ratio: 1.06

TTCGGGAGCA
switch fluorescence ratio: 1.23

ATGTGCCTAG
switch fluorescence ratio: 1.01

TTTCCCATAC
switch fluorescence ratio: 1.32

TTCAGGATAT
switch fluorescence ratio: 1.04

GAATCAGGA
switch fluorescence ratio: 0.985

TGGTGGATAG
switch fluorescence ratio: 1.05

GCGTCCTGGA
switch fluorescence ratio: 0.988

GCCTTCTGCT
switch fluorescence ratio: 0.994

TCCAAAGAC
switch fluorescence ratio: 1.02

AACAGCGAAT
switch fluorescence ratio: 1.02

CTAAAAGGCA
switch fluorescence ratio: 1.04

TATACATCGA
switch fluorescence ratio: 1.01

TTGTGCAAAA
switch fluorescence ratio: 0.978

GCATAAGTTT
switch fluorescence ratio: 1.04

CCAATGTTTG
switch fluorescence ratio: 1.02

TGGTGGGTTA
switch fluorescence ratio: 1.01

CGTGCGTTGC
switch fluorescence ratio: 1.02

TTTACTCGTA
switch fluorescence ratio: 0.965

ATAGGCCGTC
switch fluorescence ratio: 0.973

TACTTACGG
switch fluorescence ratio: 1.52

GGTTCTCTGC
switch fluorescence ratio: 1.02

CAAGTGGAGG
switch fluorescence ratio: 1.03

TATGTGGGCG
switch fluorescence ratio: 1.06

CTCACATTAT
switch fluorescence ratio: 1.06

GGTCTCCACT
switch fluorescence ratio: 0.964

TAATCTGTCT
switch fluorescence ratio: 0.982

CGCCGGCCTA
switch fluorescence ratio: 1.02

TTGTTTCTT
switch fluorescence ratio: 1.04

CCAGACGTAA
switch fluorescence ratio: 2.88

AGAGGGAAAT
switch fluorescence ratio: 0.96

AGCACGTCGA
switch fluorescence ratio: 1.08

TATTAGG
switch fluorescence ratio: 1.01

ATCCTACTGG
switch fluorescence ratio: 1

ATATATGATA
switch fluorescence ratio: 1.01

CCATATAATG
switch fluorescence ratio: 0.953

TTATGATCAT
switch fluorescence ratio: 1

TTTCGGTCAG
switch fluorescence ratio: 0.994

AAACGGCCGT
switch fluorescence ratio: 0.99

GCGGTAGGAT
switch fluorescence ratio: 0.969

GGCAGGTCTG
switch fluorescence ratio: 0.985

TTACCGCGGA
switch fluorescence ratio: 1.02

CAGATTACTT
switch fluorescence ratio: 1.21

GACGGGAACA
switch fluorescence ratio: 1.31

CGGGACAGCT
switch fluorescence ratio: 0.983

TGCATTCAAC
switch fluorescence ratio: 1.04

GTGACCTAAA
switch fluorescence ratio: 1.01

GAGGATTGTT
switch fluorescence ratio: 1.04

GCTGGTCACA
switch fluorescence ratio: 1.01

GGCCTCTTAA
switch fluorescence ratio: 1.01

GTGGCATATC
switch fluorescence ratio: 1.24

ACCTCATGCA
switch fluorescence ratio: 1.01

TGATCCATCA
switch fluorescence ratio: 0.999

CGATGTGTTG
switch fluorescence ratio: 0.959

TGCGCCCGTC
switch fluorescence ratio: 1.01

AGTCACGGCC
switch fluorescence ratio: 1.03

CTGAACCAAT
switch fluorescence ratio: 1.61

TAGTGAACGG
switch fluorescence ratio: 1.05

GACGAGCACT
switch fluorescence ratio: 1.82

TCACTGTGGG
switch fluorescence ratio: 1.01

ACGTAAAATT
switch fluorescence ratio: 1

TAAAGAGTCC
switch fluorescence ratio: 0.983

GTGTGGCGCC
switch fluorescence ratio: 0.98

CGACCGTGAA
switch fluorescence ratio: 1.2

CGTGACTCCA
switch fluorescence ratio: 1.23

TTTGAGCT
switch fluorescence ratio: 1.06

CTAGTCCCGC
switch fluorescence ratio: 0.969

CCCAAAGTT
switch fluorescence ratio: 1.01

GTTACGCGCG
switch fluorescence ratio: 0.98

GCTCCGCCTT
switch fluorescence ratio: 3.92

TCGGGATCAC
switch fluorescence ratio: 1.04

GCGGTTCGGT
switch fluorescence ratio: 0.975

TGACTTACGC
switch fluorescence ratio: 1.36

TCTTGTTAGT
switch fluorescence ratio: 0.991

GCCGCCCCGT
switch fluorescence ratio: 1.05

TTTATAACTA
switch fluorescence ratio: 0.999

GCTAATCTCC
switch fluorescence ratio: 2.11

GCTCGATCCC
switch fluorescence ratio: 1.04

TGACAGTATA
switch fluorescence ratio: 1.02

GAGTTATACG
switch fluorescence ratio: 0.954

GCGGTTCTCG
switch fluorescence ratio: 0.983

CTCCAAAACT
switch fluorescence ratio: 1.38

AGGGTTCTAA
switch fluorescence ratio: 1

GGGAAGACAA
switch fluorescence ratio: 1.01

GGTCACGGTA
switch fluorescence ratio: 0.854

CGGGGGCTAT
switch fluorescence ratio: 0.993

TTATCTAGTC
switch fluorescence ratio: 0.975

TGGAAGAGTC
switch fluorescence ratio: 0.955

TTCTTGCAGC
switch fluorescence ratio: 0.99

CAAGGGTGC
switch fluorescence ratio: 1.03

AAGATGAAGA
switch fluorescence ratio: 0.967

CGAGGTTAGA
switch fluorescence ratio: 0.997

GCATTATGCG
switch fluorescence ratio: 0.992

GACAGGTTTG
switch fluorescence ratio: 1.03

AAAGTATACC
switch fluorescence ratio: 1.06

ACCGCGGGCT
switch fluorescence ratio: 1.01

AATACGTAG
switch fluorescence ratio: 1.04

ACCCACCCCT
switch fluorescence ratio: 1.35

CACTTGCAGT
switch fluorescence ratio: 1.04

GACGAGTTCA
switch fluorescence ratio: 0.991

CACGAACATC
switch fluorescence ratio: 1.29

CCTTGAAGTG
switch fluorescence ratio: 1

CCTCATCTGA
switch fluorescence ratio: 1.14

GTGCTTGCAA
switch fluorescence ratio: 0.963

AATACCAACT
switch fluorescence ratio: 1.11

GTTAGCCACA
switch fluorescence ratio: 0.994

TCGTGGGAGA
switch fluorescence ratio: 1.01

AAATTCTATT
switch fluorescence ratio: 0.968

AAGATGTGGT
switch fluorescence ratio: 0.978

AGAGAGTATA
switch fluorescence ratio: 0.977

GCCCGGTCGT
switch fluorescence ratio: 1.01

AAAAGCGAAT
switch fluorescence ratio: 0.981

TGGCGGCGGC
switch fluorescence ratio: 1.02

GCCTCTAACT
switch fluorescence ratio: 0.991

GACGTCCGGG
switch fluorescence ratio: 0.989

CCCCAATGTT
switch fluorescence ratio: 1.11

CCGTGCTAGC
switch fluorescence ratio: 1.79

TATTTTGTCA
switch fluorescence ratio: 1.01

GATTTTGTAT
switch fluorescence ratio: 0.957

GGCAGCGG
switch fluorescence ratio: 1

TGGTATACTT
switch fluorescence ratio: 0.971

GAAAAAGAGC
switch fluorescence ratio: 1.1

ACCATTTGCG
switch fluorescence ratio: 0.992

ATTTAAATAT
switch fluorescence ratio: 0.972

TCTTTGAGAA
switch fluorescence ratio: 0.993

CTCAAATTGG
switch fluorescence ratio: 1.03

AACTTTCTAA
switch fluorescence ratio: 1.01

From the supplement of paper PMC10126150
